Test results as given in paper PMC6919601, “Identification of Plasmodium dipeptidyl aminopeptidase allosteric inhibitors by high throughput screening” (PLoS ONE, 2019).
Out of some 110,000 compounds screened, about 230 (0.21%) showed an effect of 50% or more. Some of the results follow.

Biological target: DPAP1 (Plasmodium falciparum, UniProt Q8IIJ9)
Assay: primary screen, percent inhibition; read by cleavage of a fluorogenic dipeptide substrate; higher = more effect of the substance
Design: species or system P. falciparum D10 trophozoite lysates; single well
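Further: 30 min substrate incubation versus DMSO and 10 µM JCP410 controls.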

Sequence of DPAP1 (Q8IIJ9 whole entry, looked up): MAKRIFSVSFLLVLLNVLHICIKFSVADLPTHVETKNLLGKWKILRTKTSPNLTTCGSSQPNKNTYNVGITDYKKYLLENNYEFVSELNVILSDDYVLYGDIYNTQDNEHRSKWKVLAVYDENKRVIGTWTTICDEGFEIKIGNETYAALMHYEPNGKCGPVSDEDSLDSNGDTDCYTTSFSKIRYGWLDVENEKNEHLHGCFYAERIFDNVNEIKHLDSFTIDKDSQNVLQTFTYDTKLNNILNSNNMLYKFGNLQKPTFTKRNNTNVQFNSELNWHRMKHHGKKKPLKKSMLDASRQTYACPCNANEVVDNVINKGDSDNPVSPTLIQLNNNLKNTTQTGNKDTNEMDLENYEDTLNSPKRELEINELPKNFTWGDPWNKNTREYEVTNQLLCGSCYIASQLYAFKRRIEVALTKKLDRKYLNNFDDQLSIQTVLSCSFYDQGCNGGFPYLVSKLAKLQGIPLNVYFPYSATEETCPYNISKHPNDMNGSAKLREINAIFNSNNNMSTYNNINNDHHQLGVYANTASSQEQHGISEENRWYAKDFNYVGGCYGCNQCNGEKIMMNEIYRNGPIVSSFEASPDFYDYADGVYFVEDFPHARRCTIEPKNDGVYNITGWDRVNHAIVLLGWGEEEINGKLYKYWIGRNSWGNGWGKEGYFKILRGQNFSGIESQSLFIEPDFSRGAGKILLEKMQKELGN

Compound | % Inhibition @ 10 uM
Cc1ccc(N(CC(=O)N2CCOCC2)S(C)(=O)=O)cc1Cl | 5.27%
CCCC(=O)n1nc(C)c2c1CC(C)(C)CC2=O | -0.902%
Cc1oc(-c2ccc(C(=O)NCCC3=CCCCC3)cc2)nc1CS(=O)c1ccccc1 (centres unmarked) | 2.32%
CC1(C)CC(NC(=O)C(=O)NCCc2ccc(Cl)cc2)CC(C)(C)N1 | -0.13%
Cn1c(C(=O)NCc2ccccc2)cc2c(=O)n3ccccc3nc21 | 3.72%
COc1ccc(Cl)cc1NC(=O)c1cnn2c1NC(c1cccs1)CC2C(F)(F)F (centres unmarked) | -6.41%
O=C(Nc1ccccc1)c1cccnc1 | 1.21%
COc1ccc(C(=O)Nc2c3c(nn2-c2ccc(F)cc2)CSC3)cc1 | 11.3%
CC[C@H](NC(=O)[C@H](CC1CCCCC1)/N=C(\NS(C)(=O)=O)c1ccccc1)C(=O)c1nc2ccccc2o1 | 0.079%
O=C(O)c1cc(-c2ccco2)nc2ccc(Br)cc12 | -1.63%
O=c1cccc2n1C[C@H]1C[C@@H]2CN(Cc2c(F)cccc2Cl)C1 | 1.8%
CCCC1=NN2C(=N)/C(=C/c3ccc(OC)c(OC)c3OC)C(=O)N=C2S1 | -1.06%
COc1ccc2c(CNCc3ccccc3Cl)c(C(=O)O)n(Cc3ccccc3C)c2c1 | -4.07%
O=C1NC(=S)NC(=O)C1=Cc1ccccc1[N+](=O)[O-] | 2.51%
COCC(=O)Nc1ccc(S(=O)(=O)N2CCC(C)CC2)cc1 | -1.63%
Cc1ccc(-n2nc(C)c3c(C(F)(F)F)cc(=O)n(CC(=O)N4CCCC4)c32)cc1 | -0.298%
O=C(O)c1ccc(CN2CC(=O)N3CCCCC3C2=O)cc1 (centres unmarked) | 1.63%
CCN(CC)S(=O)(=O)c1ccc(N2CCN(CCO)CC2)nc1 | -3.33%
Cc1[nH]c2ccccc2c1CCCNC1CCCCC1 | -0.744%
CCn1c(C(=O)O)c(CNCc2ccc(OC)cc2)c2ccccc21 | 5.09%
O=C1N=C(N2CCOCC2)S/C1=C/c1ccc(-c2ccccc2Cl)o1 | -12.7%
COc1cc(OC)cc(-c2cc(NC(C)=O)[nH]n2)c1 | -1.03%
COc1cccc(-c2nc(Cn3c(=O)cc(C)c4c(C)nn(-c5cccc(F)c5)c43)c(C)o2)c1OC | -5.79%
CC(CCc1ccccc1)N1CCN(CCO)CC1 (centres unmarked) | -7.35%
CCC(C)[C@H](NC(=O)OCc1ccccc1)C(=O)N[C@@H](CC(C)C)C(=O)N[C@@H](C)C(=O)N[C@H](/C=C/S(C)(=O)=O)CC(C)C (some centres unmarked) | 0.079%

Compound | % Inhibition @ 10 uM
CC(CCc1ccccc1)N1CCN(c2cccc(Cl)c2)CC1 (centres unmarked) | -5.44%
CCOC(=O)C1=C(C)OC(N)=C(C#N)C1c1cccc(C)c1 (centres unmarked) | -0.261%
COC(=O)c1ccn(CC(=O)NC2CCCCC2)n1 | 5.45%
N#CCNC(=O)C1(NC(=O)N2CCN(c3ncccn3)CC2)CCCCC1 | -1.41%
COCCNC(=O)/C(C#N)=C/c1c(Oc2ccc(C(C)(C)C)cc2)nc2c(C)cccn2c1=O | 2%
CCc1ccc(CNCc2c(C(=O)O)n(Cc3ccccc3)c3cc(C)ccc23)cc1 | 6.42%
O=C(O)c1ccc(N2C(=O)c3ccc(Oc4ccc([N+](=O)[O-])cc4)cc3C2=O)cc1 | -1.77%
N=c1c(C(=O)NCc2ccco2)cc2c(=O)n3ccccc3nc2n1CCN1CCOCC1 | 6.7%
Cc1ccc(-c2cc(C(F)(F)F)n3ncc(C(=O)N4CCN(Cc5ccccc5)CC4)c3n2)cc1 | 4.86%
COc1ccc2cc3cc(C(=O)N4CCN(C5CCCCC5)CC4)oc3nc2c1 | 1.9%
COc1cccc2c(O)c(NC(=O)N3CCN(C(=O)c4ccco4)CC3)cnc12 | -4.54%
CCOc1ccc(NS(=O)(=O)c2ccc(NC(C)=O)cc2)cc1 | 2.4%
Cc1ccccc1COC(=O)N[C@@H](CC(C)C)C(=O)NCC#N | -6.68%
Cc1ccc(CCNC(=O)CCS(=O)(=O)Cc2ccc(C)cc2)cc1 | -1.21%
Cc1cccc(COc2ccc(Br)cc2/C=C2/NC(=O)NC2=O)c1 | 3.8%
CCCCN(Cc1ccccc1)Cc1cccc(Oc2ccc(Cl)cc2)c1 | -7.34%
O=CNC(=O)c1ccccc1C(=O)O | -2.27%
Cc1cccc(OCc2nnc(NC(=O)C(F)(F)F)s2)c1C | -1.93%
COC(=O)/C(C#N)=C/c1c(Oc2cccc(C)c2C)nc2ccccn2c1=O | -5.1%
CCn1c(=O)c(C(=O)Nc2ccccc2C)c(O)c2ccccc21 | 1.83%
COc1ccc2oc(C(=O)c3ccccc3)c(NC(=O)CCCN3C(=O)c4ccccc4C3=O)c2c1 | 2.7%
O=C(CSc1nnc(-c2ccc(Cl)cc2)o1)N1CCOCC1 | 6.13%
O=C(c1ccccc1Cl)n1nc(-c2ccco2)nc1NCc1ccccc1 | -3.24%
C=CCCC(C)(O)C#CCN(CC)CC (centres unmarked) | -0.736%
CS(=O)(=O)N1CCN(c2ccc(NC(=O)c3ccc(C#N)cc3F)cc2)CC1 | -6.02%

Compound | % Inhibition @ 10 uM
CCCCN(C)C(=S)Nc1c(C(=O)OCC)[nH]c2ccc(OC)cc12 | -3.13%
COc1ccc(N(Cc2ccc(F)cc2)C(=O)COc2ccc3ccccc3c2)cc1 | -2.03%
CCc1ccccc1NC(=O)CN(c1ccc(C)c(Cl)c1)S(C)(=O)=O | -1.43%
Nc1nc(-c2ccccc2)c(C(=O)Nc2ccc(Cl)cc2)s1 | 1.24%
Cc1ccc(CNC(=O)CSc2nc3nccnc3c(=O)n2Cc2cccs2)cc1 | -0.659%
Cc1ccc(-c2nc(O)nc(-c3ccc(C)cc3)n2)cc1 | 3.25%
Cc1ccc(C(=O)Nc2ccc(C(C)C)cc2)cc1 | -1.25%
O=C(Nc1cccc(NC(=O)c2ccccc2F)n1)c1ccccc1F | 4.81%
CC(C)C(NS(=O)(=O)c1cccs1)C(=O)Nc1nc(C(C)(C)C)cs1 (centres unmarked) | -3.44%
Cc1noc(C(=O)Nc2cccnc2)c1Cl | -3.45%
CCc1ccc(CNC(=O)CCC(=O)n2ncc3cc(Cl)ccc32)cc1 | -4.68%
CCn1cc(Br)c(C(=O)Nc2ccccc2C(C)(C)C)n1 | -0.67%
COc1ccccc1C1C2=C(O)CCCC2=NC(C)=C1C(=O)Nc1ccc(Br)cn1 (centres unmarked) | 1.4%
Cc1ccc(S(=O)(=O)NC(C(=O)Oc2ccc([N+](=O)[O-])cc2)C(C)C)cc1 (centres unmarked) | 17%
O=S1(=O)N=C(Nc2ccccc2)c2ccccc21 | -1.5%
CC1CN(C(=O)c2ccccc2)CCC1(O)c1ccccc1 (centres unmarked) | -1.07%
CCN1C(=O)/C(=C\c2ccc(OC)cc2OC)S/C1=N/c1ccccc1 | -2.92%
O=C(c1ccco1)N1CCN(Cc2cccc(Br)c2)CC1 | -2.37%
Fc1cccc(CN2CCN(Cc3ccccc3)CC2)c1 | -1.77%
Cc1ccc2c(c1)c1c3n2CCN(C(=O)CN2CCOCC2)C3CCC1 (centres unmarked) | -2.63%
Brc1ccc(CN2CCC(Cc3ccccc3)CC2)o1 | -4.5%
COCCCNC(=O)C1CCN(S(=O)(=O)c2ccc(Cl)cc2)CC1 | -3.74%
C=CCn1c(SCC(=O)NCCCO)nc2sc3c(c2c1=O)CCCC3 | -0.725%
CC(C)CCN1C(=O)c2ccc(C(=O)Nc3ccc4c(c3)OCO4)cc2C1=O | 3.5%
COc1ccc2c(Sc3ccccc3)c(C(=O)NCc3cccnc3)[nH]c2c1 | 12%

Compound | % Inhibition @ 10 uM
Cc1nc(SCC(=O)Nc2sc3c(c2C#N)CCCC3)[nH]c1CC(C)C | -0.92%
Cc1ccc(NCN2C(=O)c3ccccc3C2=O)cc1Cl | 1.52%
CCc1nc2ccccc2c(NC(=O)CNCCc2ccc(O)cc2)c1C | -0.216%
CCCNC(=O)c1nn2c(C(F)(F)F)cc(-c3ccco3)nc2c1Br | -0.132%
O=C(COCc1cc(-c2cccs2)on1)NC1CCCC1 | -1.04%
COC(=O)C(NS(=O)(=O)c1ccc([N+](=O)[O-])cc1)c1ccccc1 (centres unmarked) | -1.96%
CCCN(CCC)CCCNC(=O)CCNS(=O)(=O)c1ccc(Br)cc1 | -0.519%
COc1ccc2nc(NC(=O)C3CCN(S(=O)(=O)c4c(C)n[nH]c4C)CC3)sc2c1 | -2.41%
CCC(Cc1ccccc1)NS(=O)(=O)c1c(C)nc2scc(C)n2c1=O (centres unmarked) | -5.67%
CCCCNC(=O)Cn1c(=O)cc(C(F)(F)F)c2c(C)nn(-c3cccc(Cl)c3C)c21 | -3.6%
CC1=CC(=C2C(=O)c3ccccc3C2=O)C=C(C)O1 | 2.03%
CCN1CCN(Cc2ccc(-c3ccccc3)cc2)CC1 | -3.71%
CCOC(=O)C1CCCCN1C1CCC(c2ccccc2)CC1 (centres unmarked) | 5.01%
N#CCCCCn1c(-c2cncs2)nc2ccccc21 | -0.759%
Cc1cccc2c1Oc1nc(-c3ccccc3O)nc(O)c1C2 | 3.92%
O=c1[nH]c2ncccc2c(=O)n1CCc1ccccc1 | -3.44%
CC(=O)Nc1ccc(S(=O)(=O)N2CCN(C)CC2)cc1 | 6.33%
CCCCn1c(N=Nc2c(O)[nH]c3ccccc23)nc2c1c(=O)[nH]c(=O)n2C | -0.053%
COc1ccccc1N1CCN(Cc2cccnc2)CC1 | -4.61%
COc1cc2sc(C(=O)Nc3ccccc3)c(Cl)c2cc1OC | 3.46%
COc1ccc(-c2cc(C(F)(F)F)n3nc(C(=O)NCCCn4ccnc4)cc3n2)cc1 | 6.12%
COC(=O)C1=C(N)Oc2cc(C)n(Cc3ccco3)c(=O)c2C1c1ccc(Cl)cc1 (centres unmarked) | -1.11%
O=C(NCCc1cccs1)c1ccc(CS(=O)Cc2ccc(Cl)cc2)o1 (centres unmarked) | -0.154%
